# Data taken from PubChem BioAssay (Tox21).
# Where “and” joins values, the source holds several entries; their conditions need not be identical. Equal values may be shown once. The shares of active, inactive and inconclusive entries below differ from those in the screen. For part of these data: Where the call is inconclusive, the potency comes from a doubtful curve fit. Calls of active or inactive are those of the source. Unless noted, the call rests on the fitted dose curve; in most records, active means well fitted curve in the direction sought with a large enough effect in the repeat runs; inconclusive means weak or mixed curves; inactive means no such curve, though single readings can be large; an effect the other way counts as inactive or inconclusive.
# Key:
# [1] = qHTS assay to identify aromatase inhibitors - cell viability counter screen (AID 743084); conditions: MCF-7 aro ERE viability, CellTiter-Fluor, 24 h; activity change, negative = cytotoxicity: at 70.3 µM (top of the series);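 further: cells stimulated with testosterone during compound exposure; potency means the concentration at half of the fitted maximal effect; nearly all actives have a fitted effect of over 55% in size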
# [2] = target: Peroxisome proliferator-activated receptor gamma (Homo sapiens) (UniProt P37231); test: qHTS assay to identify small molecule agonists of the peroxisome proliferator-activated receptor gamma (PPARg) signaling pathway (AID 743094; active means well fitted activation curve with a large enough effect in the signal ratio in the repeat runs, not every such curve was filed as active; inconclusive means weak or mixed curves, or effect the other way; inactive means no such curve, though single readings can be large or run the other way; the % refers to the signal ratio; further: potency means the concentration at half of the fitted maximal effect; on activation: on the % scale 0 is the no-effect control and ±100 the full control effect); conditions: HEK293H PPARg-UAS-bla, beta-lactamase FRET ratio, 17 h; activation: at 57 µM (top of the series) unless noted
# Outline: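 Beta-lactamase FRET fluorescence was the read-out after a 1 h room-temperature substrate step, following 17 h compound treatment at 37C of HEK293H cells expressing a UAS-driven bla reporter responsive to PPARg.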
# [3] = target: Peroxisome proliferator-activated receptor gamma (Homo sapiens) (UniProt P37231); test: qHTS assay to identify small molecule antagonists of the peroxisome proliferator-activated receptor gamma (PPARg) signaling pathway (AID 743191; calls by dose curve; further: nearly all actives have a fitted effect of over 30% in size; further: potency means the concentration at half of the fitted maximal effect; on ratio activity, negative = inhibition: on the % scale 0 is the no-effect control and ±100 the full control effect); conditions: HEK293H PPARg-UAS-bla, beta-lactamase ratio, antagonist, 17 h; ratio activity, negative = inhibition: at 62.6 µM (top of the series) unless noted
# Outline: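 GeneBLAzer PPARg UAS-bla HEK293H cells, 5 h post-plating, exposed to compounds 17 h at 37C. LiveBLAzer B/G FRET substrate added for 1 h at room temperature; beta-lactamase reporter read by fluorescence intensity.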
# [4] = qHTS assay to identify small molecule antagonists of the peroxisome proliferator-activated receptor gamma (PPARg) signaling pathway - cell viability counter screen (AID 743194); conditions: PPARg-bla HEK293H viability, CellTiter-Glo luminescence, 17 h, co-treated with 50 nM rosiglitazone; activity change, negative = cytotoxicity: at 62.6 µM (top of the series); further: potency means the concentration at half of the fitted maximal effect; nearly all actives have a fitted effect of over 55% in size
# Outline: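 Cytotoxicity counter screen in PPARg-bla HEK293H cells, same wells as reporter assay. Compounds plus 50 nM rosiglitazone (final) for 17 h at 37 C, then viability read by CellTiter-Glo luminescence.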
# [5] = qHTS assay for small molecule agonists of the antioxidant response element (ARE) signaling pathway (AID 743202; active means well fitted activation curve with a large enough effect in the signal ratio in the repeat runs, not every such curve was filed as active; inconclusive means weak or mixed curves, or effect the other way; inactive means no such curve, though single readings can be large or run the other way; the % refers to the signal ratio; further: potency means the concentration at half of the fitted maximal effect); conditions: HepG2 ARE-bla reporter, beta-lactamase FRET, 16 h
# Outline: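 Agonist mode reporter screen: HepG2 cells with ARE-controlled beta-lactamase are incubated with test compounds for 16 h at 37 C, and beta-lactamase activity is measured as fluorescence of cleaved B/G FRET substrate.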
# [6] = qHTS assay to identify small molecule agonists of the peroxisome proliferator-activated receptor delta (PPARd) signaling pathway - cell viability counter screen (AID 743211); conditions: PPARd-bla HEK293H viability, CellTiter-Glo luminescence, 17 h; activity change, negative = cytotoxicity: at 62.6 µM (top of the series); further: potency means the concentration at half of the fitted maximal effect; nearly all actives have a fitted effect of over 55% in size
# Outline: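 Viability was measured as CellTiter-Glo luminescence (30 min, room temperature) in the same wells as the beta-lactamase readout. GeneBLAzer PPARd UAS-bla HEK293H cells received compound after 5 h plating and were incubated 17 h at 37 C.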
# [7] = qHTS assay to identify small molecule antagonists of the peroxisome proliferator-activated receptor delta (PPARd) signaling pathway - cell viability counter screen (AID 743213); conditions: PPARd-bla HEK293H viability, CellTiter-Glo luminescence, 17 h; viability change, negative = cytotoxic: at 62 µM (top of the series) unless noted; further: nearly all actives have a fitted effect of over 50% in size; further: potency means the concentration at half of the fitted maximal effect
# Outline: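 Viability counter-screen, qHTS format: PPARd-bla HEK293H, L165041 300 nM final, 17 h compound exposure at 37 C, CellTiter-Glo luminescence after 30 min RT.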
# [8] = target: Bile acid receptor (Homo sapiens) (UniProt Q96RI1); test: qHTS assay to identify small molecule antagonists of the farnesoid-X-receptor (FXR) signaling pathway (AID 743217; active means well fitted inhibition curve with a large enough effect in the signal ratio in the repeat runs, not every such curve was filed as active; inconclusive means weak or mixed curves, or effect the other way; inactive means no such curve, though single readings can be large or run the other way; the % refers to the signal ratio; further: on the % scale 0 is the no-effect control and ±100 the full control effect); conditions: HEK293T FXR-UAS-bla, beta-lactamase ratio, CDCA-stimulated, 16 h; activity change, negative = inhibition: at 62.6 µM (top of the series) unless noted
# Outline: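 HEK 293T FXR-UAS-bla, 5000 cells/well; compound + CDCA 50 uM final; 16 h, 37 °C; B/G FRET substrate 2 h RT; fluorescence.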
# [9] = target: Bile acid receptor (Homo sapiens) (UniProt Q96RI1); test: qHTS assay to identify small molecule agonists of the farnesoid-X-receptor (FXR) signaling pathway (AID 743220; active means well fitted activation curve with a large enough effect in the signal ratio in the repeat runs, not every such curve was filed as active; inconclusive means weak or mixed curves, or effect the other way; the % refers to the signal ratio; further: potency means the concentration at half of the fitted maximal effect); conditions: HEK293T FXR-UAS-bla, beta-lactamase FRET ratio, 16 h; activation: at 62.6 µM (top of the series) unless noted
# Outline: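 Beta-lactamase reporter under UAS control in GeneBLAzer FXR HEK 293T cells (5000/well) measured with LiveBLAzer FRET substrate after 2 h at room temperature. Compound exposure lasted 16 h at 37C.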
# [10] = target: Vitamin D3 receptor (Homo sapiens) (UniProt P11473); test: qHTS assay to identify small molecule antagonists of the vitamin D receptor (VDR) signaling pathway (AID 743223; active means well fitted inhibition curve with a large enough effect in the signal ratio in the repeat runs, not every such curve was filed as active; inconclusive means weak or mixed curves, or effect the other way; inactive means no such curve, though single readings can be large or run the other way; the % refers to the signal ratio; further: potency means the concentration at half of the fitted maximal effect); conditions: VDR-UAS-bla HEK293T, beta-lactamase FRET ratio, 16 h; activity change, negative = inhibition: at 61 µM (top of the series) unless noted
# Outline: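 Antagonist mode: compound added to VDR-bla cells alongside agonist 1alpha,25-dihydroxyvitamin D3 (3 nM final), incubation 16 h at 37C. Read-out is LiveBLAzer FRET fluorescence, 2 h at room temperature.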
# [11] = qHTS assay for small molecule activators of the heat shock response signaling pathway - cell viability counter screen (AID 743209); conditions: HSE-bla HeLa viability, CellTiter-Glo luminescence, 5 h; activity change, negative = cytotoxicity: at 62.6 µM (top of the series); further: potency means the concentration at half of the fitted maximal effect; nearly all actives have a fitted effect of over 50% in size
# Outline: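 Luminescence from CellTiter-Glo, added after the beta-lactamase FRET read, gave the viability signal. Cells were HSE-bla HeLa treated with DMSO-dissolved compounds for 5 h at 37 C following overnight plating.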
# [12] = target: Peroxisome proliferator-activated receptor delta (Homo sapiens) (UniProt Q03181); test: qHTS assay to identify small molecule antagonists of the peroxisome proliferator-activated receptor delta (PPARd) signaling pathway (AID 743215; active means well fitted inhibition curve with a large enough effect in the signal ratio in the repeat runs, not every such curve was filed as active; inconclusive means weak or mixed curves, or effect the other way; inactive means no such curve, though single readings can be large or run the other way; the % refers to the signal ratio;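 further: cells stimulated with agonist L165041 at 300 nM final during compound exposure; potency means the concentration at half of the fitted maximal effect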); conditions: HEK293H PPARd-UAS-bla, beta-lactamase FRET ratio, antagonist, 17 h; ratio activity, negative = inhibition: at 62 µM (top of the series) unless noted
# Outline: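 Read-out is beta-lactamase FRET fluorescence, measured 2 h after substrate addition at room temperature. Beforehand, UAS-bla HEK293H cells carrying the PPARd reporter were exposed to compounds with L165041 at 300 nM final for 17 h at 37 C.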
# [13] = qHTS assay for small molecule activators of the heat shock response signaling pathway (AID 743210; active means well fitted activation curve with a large enough effect in the signal ratio in the repeat runs, with a control signal flat, not every such curve was filed as active; inconclusive means weak or mixed curves; the % refers to the signal ratio; further: potency means the concentration at half of the fitted maximal effect); conditions: HeLa HSE-bla reporter, beta-lactamase ratio, 5 h; activation: at 62.6 µM (top of the series)
# Outline: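 Quantitative high-throughput format using an engineered HeLa line in which heat shock response elements drive beta-lactamase; after 5 h with compound, cells received a B/G FRET substrate and fluorescence was read.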
# [14] = target: Peroxisome proliferator-activated receptor delta (Homo sapiens) (UniProt Q03181); test: qHTS assay to identify small molecule agonists of the peroxisome proliferator-activated receptor delta (PPARd) signaling pathway (AID 743212; calls by dose curve; further: on the % scale 0 is the no-effect control and ±100 the full control effect); conditions: HEK293H PPARd-UAS-bla, beta-lactamase FRET ratio, 17 h; activation: at 62.6 µM (top of the series) unless noted
# Outline: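 Quantitative high-throughput agonist screen in a HEK293H beta-lactamase reporter line under UAS control. Compounds in DMSO, at 37 C. Fluorescence read after 2 h with FRET substrate at room temperature.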
# [15] = qHTS assay to identify small molecule agonists of the farnesoid-X-receptor (FXR) signaling pathway - cell viability counter screen (AID 743218); conditions: FXR-bla HEK293T viability, CellTiter-Glo luminescence, 16 h; viability change, negative = cytotoxic: at 62.6 µM (top of the series) unless noted; further: potency means the concentration at half of the fitted maximal effect; nearly all actives have a fitted effect of over 45% in size
# Outline: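 HEK 293T FXR-bla cells; 5 h pre-incubation, 16 h compound exposure at 37 C; LiveBLAzer substrate 2 h RT, then CellTiter-Glo 30 min RT, luminescence.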
# [16] = qHTS assay for small molecule agonists of the antioxidant response element (ARE) signaling pathway - cell viability counter screen (AID 743203; calls by dose curve; further: potency means the concentration at half of the fitted maximal effect; nearly all actives have a fitted effect of over 55% in size); conditions: ARE-bla HepG2 viability, CellTiter-Glo luminescence, 16 h; viability change, negative = cytotoxic: at 73.3 µM (top of the series)
# Outline: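 HepG2 cells carrying ARE-driven beta-lactamase; 2,000 cells/well; 5 hrs plating; compound pinned from DMSO; 16 hrs 37C/5% CO2; CellTiter-Glo added; 30 min RT; luminescence.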
# [17] = target: Vitamin D3 receptor (Homo sapiens) (UniProt P11473); test: qHTS assay to identify small molecule agonists of the vitamin D receptor (VDR) signaling pathway (AID 743222; calls by dose curve; further: potency means the concentration at half of the fitted maximal effect); conditions: HEK293T VDR-UAS-bla, beta-lactamase FRET ratio, 16 h; activation: at 63.5 µM (top of the series) unless noted
# Outline: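 VDR-bla cells, 2,000/well; 4 h preincubation 37C; cpd (DMSO) 16 h; LiveBLAzer B/G substrate 2 h RT; fluorescence intensity read.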
# [18] = activation: at 73.3 µM (top of the series) unless noted
# Tags describe the fitted curve by direction and shape or compound fluorescence and quenching.
# Chain of UniProt Q03181 (Q03181 whole entry, looked up): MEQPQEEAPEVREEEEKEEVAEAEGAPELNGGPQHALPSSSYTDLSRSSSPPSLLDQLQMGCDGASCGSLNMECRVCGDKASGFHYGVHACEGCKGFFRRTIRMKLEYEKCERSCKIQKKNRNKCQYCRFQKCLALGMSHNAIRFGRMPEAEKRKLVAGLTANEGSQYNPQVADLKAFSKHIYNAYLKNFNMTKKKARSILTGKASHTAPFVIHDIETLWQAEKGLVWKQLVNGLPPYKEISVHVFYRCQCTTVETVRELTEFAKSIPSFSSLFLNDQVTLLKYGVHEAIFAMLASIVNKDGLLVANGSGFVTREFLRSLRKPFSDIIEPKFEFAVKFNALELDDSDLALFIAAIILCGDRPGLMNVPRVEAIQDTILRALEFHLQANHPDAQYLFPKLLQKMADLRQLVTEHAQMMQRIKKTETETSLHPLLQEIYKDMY
# Chain of UniProt P37231 (P37231 whole entry, looked up): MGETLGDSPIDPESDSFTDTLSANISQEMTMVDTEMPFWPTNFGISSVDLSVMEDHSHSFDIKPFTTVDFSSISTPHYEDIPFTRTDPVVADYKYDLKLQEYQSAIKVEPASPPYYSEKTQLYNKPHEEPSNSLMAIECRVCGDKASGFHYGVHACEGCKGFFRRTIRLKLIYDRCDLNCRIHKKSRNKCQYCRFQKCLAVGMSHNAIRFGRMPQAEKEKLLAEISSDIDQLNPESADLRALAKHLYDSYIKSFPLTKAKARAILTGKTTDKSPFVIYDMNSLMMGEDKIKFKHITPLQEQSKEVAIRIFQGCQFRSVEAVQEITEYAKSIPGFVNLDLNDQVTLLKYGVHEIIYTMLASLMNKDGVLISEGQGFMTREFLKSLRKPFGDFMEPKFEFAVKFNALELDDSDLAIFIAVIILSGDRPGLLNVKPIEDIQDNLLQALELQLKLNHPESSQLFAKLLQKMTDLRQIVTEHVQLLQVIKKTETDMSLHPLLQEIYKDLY
# Chain of UniProt P11473 (P11473 whole entry, looked up): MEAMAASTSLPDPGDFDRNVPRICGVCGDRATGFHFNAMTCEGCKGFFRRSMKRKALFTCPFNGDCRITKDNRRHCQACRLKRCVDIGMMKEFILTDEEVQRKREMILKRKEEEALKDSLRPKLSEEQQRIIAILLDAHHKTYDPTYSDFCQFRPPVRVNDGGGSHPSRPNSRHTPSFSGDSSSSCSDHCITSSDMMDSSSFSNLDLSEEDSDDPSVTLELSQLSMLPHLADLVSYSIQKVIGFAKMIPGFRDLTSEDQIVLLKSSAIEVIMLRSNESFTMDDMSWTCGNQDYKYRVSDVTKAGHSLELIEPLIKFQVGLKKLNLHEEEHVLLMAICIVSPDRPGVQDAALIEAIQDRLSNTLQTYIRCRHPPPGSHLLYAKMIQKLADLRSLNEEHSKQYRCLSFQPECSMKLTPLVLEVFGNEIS
# Chain of UniProt Q96RI1 (Q96RI1 whole entry, looked up): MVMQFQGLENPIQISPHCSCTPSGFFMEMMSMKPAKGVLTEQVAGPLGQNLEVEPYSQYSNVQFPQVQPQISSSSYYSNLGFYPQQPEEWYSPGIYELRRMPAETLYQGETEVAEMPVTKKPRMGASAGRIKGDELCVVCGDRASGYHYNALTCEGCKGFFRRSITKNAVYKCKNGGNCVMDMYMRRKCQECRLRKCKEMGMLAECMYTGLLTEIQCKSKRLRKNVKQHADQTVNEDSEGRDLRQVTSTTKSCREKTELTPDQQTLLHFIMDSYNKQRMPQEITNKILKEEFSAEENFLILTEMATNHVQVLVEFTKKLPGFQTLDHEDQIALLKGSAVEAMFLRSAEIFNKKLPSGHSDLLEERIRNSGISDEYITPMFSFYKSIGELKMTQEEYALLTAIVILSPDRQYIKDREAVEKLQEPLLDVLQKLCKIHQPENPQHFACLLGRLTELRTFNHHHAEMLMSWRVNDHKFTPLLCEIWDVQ
smiles,measurement,setting,value
CCCCC(CC)COP(=O)(OCC(CC)CCCC)OCC(CC)CCCC (stereo not drawn),Potency,[1],"inconclusive: 19.3 µM [rising, full curve, poor fit]"
same,Potency,[2],inactive
same,Potency,[3],inactive
same,Potency,[4],"inconclusive: 49.5 µM [rising, partial curve, poor fit]"
same,activation,[5]; [18],inconclusive: 11.8%
same,activation,[5]; at 94.8 µM (top of the series),inactive: 0.588%
same,Potency,[6],"inconclusive: 17.6 µM [cytotoxic, partial curve]"
same,Potency,[7],inactive
same,"activity change, negative = inhibition",[8],inconclusive: -7.74% [at 81.1 µM]
same,Potency,[9],inactive
same,Potency,[10],inactive
Nc1ncn([C@@H]2O[C@H](CO)[C@@H](O)[C@H]2O)c(=O)n1,Potency,[1],"inconclusive: 13.3 µM [cytotoxic] and inconclusive: 8.63 µM [cytotoxic, full curve]"
same,activation,[2],inconclusive: -3.84% and inconclusive: 6.1%
same,"ratio activity, negative = inhibition",[3],inconclusive: 16.4%
same,Potency,[5]; [18],active: 1.54 µM and active: 2.66 µM
same,Potency,[11],"inconclusive: 19.5 µM [cytotoxic, full curve]"
same,Potency,[12],"inconclusive: 15.5 µM [inhibitor, full curve] and inconclusive: 33.5 µM [inhibitor, single point]"
same,"activity change, negative = inhibition",[10],inconclusive: -38.5% and inconclusive: 0.397%
CCCCc1nc2cccnc2n1Cc1ccc(-c2ccccc2-c2nnn[nH]2)cc1,Potency,[1],active: 54.5 µM
same,Potency,[2],active: 5.49 µM
same,Potency,[3],inconclusive: 49 µM
same,Potency,[5]; [18],"inconclusive: 48.6 µM [rising, partial curve]"
same,Potency,[13],"inconclusive: 54.9 µM [activator, partial curve, poor fit]"
same,"activity change, negative = inhibition",[8],inconclusive: 6.24%
same,activation,[9],inconclusive: 3.03%
same,Potency,[10],"inconclusive: 1.38 µM [activator, full curve, poor fit]"
NNc1nc(-c2ccc(N)cc2)cs1,Potency,[1],active: 27.3 µM
same,Potency,[2],"inconclusive: 8.71 µM [inhibitor, partial curve, poor fit]"
same,Potency,[3],"inconclusive: 0.309 µM [inhibitor, full curve]"
same,Potency,[5]; [18],"inconclusive: 15.4 µM [falling, full curve]"
same,Potency,[13],"inconclusive: 30.9 µM [falling, partial curve]"
same,Potency,[6],"inconclusive: 43.6 µM [cytotoxic, partial curve]"
same,Potency,[14],inactive
same,Potency,[15],active: 6.92 µM
c1ccc2sc(SSN3CCOCC3)nc2c1,Potency,[1],"active: 6.84 µM and inconclusive: 61.1 µM [cytotoxic, single point]"
same,Potency,[2],"active: 5.48 µM and inconclusive: 30.9 µM [activator, partial curve, poor fit]"
same,Potency,[3],inconclusive: 61.5 µM [single point] and inconclusive: 49 µM
same,Potency,[4],"inconclusive: 61.6 µM [cytotoxic, single point]"
same,Potency,[5]; [18],"inconclusive: 68.6 µM [falling, partial curve, poor fit]"
same,activation,[5]; [18],inconclusive: -3.69%
same,Potency,[16],"inconclusive: 68.5 µM [cytotoxic, single point] and inconclusive: 30.6 µM [cytotoxic, partial curve]"
same,Potency,[11],"inconclusive: 5.48 µM [cytotoxic, full curve]"
same,Potency,[13],inconclusive: 9.03 µM and inconclusive: 10.2 µM
same,Potency,[6],"inconclusive: 54.9 µM [cytotoxic, single point]"
same,Potency,[7],"inconclusive: 21.8 µM [cytotoxic, full curve, poor fit]"
same,Potency,[9],"inconclusive: 17.3 µM [activator, full curve, poor fit]"
same,Potency,[17],inconclusive: 17.3 µM
same,activation,[17],inconclusive: -28%
